Measured values as given in the supplement of paper PMC10338343.
± gives the standard deviation. This is a selection; strong and weak results do not stand in their true shares.

Tested on: MIWI (PIWIL1) piRISC loaded with L1MC piRNA (30 nt)
Assay: pre-steady-state target cleavage rate (min^-1); MIWI and MILI are mouse PIWI proteins and EfPiwi is from a freshwater sponge; tags in brackets are library labels; higher = faster piRNA-guided slicing of the target
Details: guide: L1MC piRNA 5'p-UAACUAAAUACUAUGCAAGCUGUAGGUCCU; auxiliary factor: 500 nM mouse GTSF1
In short: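 Cleave-'n-Seq measured uncleaved targets by sequencing after a transcribed, DNA-blocked target RNA library […] was mixed with 1 nM active affinity-purified piRISC holding one synthetic guide, with or without 500 nM GTSF1 partner protein, at 33 °C in HEPES–potassium acetate buffer for 0–8 or 0–960 min. Counts were normalised to depth and to weakly complementary targets, three trials were pooled, and k3 was capped at 0.0001 min^-1. A burst-and-steady-state fit gave the pre-steady-state cleavage rate.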
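Note: 1 nM active piRISC with 0.1 nM target library at 33 °C single turnover.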

Sequence	pre-steady-state target cleavage rate
UCCUGGAACAGCUUGCAUAGUAUUUGUUA	0.177 ± 0.031
UGGACCUACAGCUUGGUUAGUAUUUACAAA	0.0192 ± 0.0071
UCCUCCAUGAGCUUGCAUAGUAUUUUCAAA	0.112 ± 0.025
AGGACCUACAGCUUCGAUAGUAUUUAGAAA	0.177 ± 0.036
UGGACCUACAGCUUGCUAAGUAUUUACAAA	0.00712 ± 0.0031
UCCUGGAUCAGCUUGCAUUCUAUUUACAAA	0.00476 ± 0.0046
AGGACCUACAGCUUCCAUAGUAUUUUGUUA	0.181 ± 0.056
UCCUGGUACACGUUGCAUAGUAUUUUCAAA	0.0245 ± 0.013
UCCACCUACAGCUUCCAUAGUAAUUAGUUA	0.0401 ± 0.015
AGGACCUACAGCUUGCAUAGAUAUUUCAAA	0.35 ± 0.12
UCCUCCUACACGAUGCAUAGUAUUUUCAAA	0.13 ± 0.032
UCCUGGAACAGCAUGCAUAGUAUUUUCAAA	0.212 ± 0.036
UCCACCUACAGGAAGCAUAGUAUUUACAAA	0.182 ± 0.038
UCGACCUACAGCAAGCAUAGUAUUUUCAAA	0.22 ± 0.039
UCCACCUACAGCUUCCAUAGUAUUUACAAA	0.0165 ± 0.008
UCCUGCUACAGCUUGCAUAGCUAUUUAGUUA	0.0118 ± 0.0063
UGGACCUACUCGUUGCAUAGUAUUUAGAAA	0.0338 ± 0.0054
UCCUGGAUGAGGAAGCAUAGUAUUUAGUUA	0.0108 ± 0.0036
AGGACCUACAGCUUGCAAUCUAUUUAGUAA	0.104 ± 0.025
UGGACCUACAGCUUGCAUAGUAUAAAGAAA	0.211 ± 0.047

Sequence	pre-steady-state target cleavage rate
UCCUGGAUGUCGAACCAUAGUAUUUAUGUUA	< 0.0001
UCCUCCUACAGCUUGCAUAGAUAUUAGUUA	0.0322 ± 0.013
UCCUGGAUGUCGAACGUAUCUAUUAUCUUA	< 0.0001
UCCUGGAUCAGCUUGCAUAGUAUAAUCAAA [g8:g22:cont:t1A]	0.0365 ± 0.013
UCCACCUACAGCUUGCAUAGUAAUAAGUUA	0.365 ± 0.042
UCCUGCUACAGCAUCCAUAGUAUUUAGUUA	0.244 ± 0.047
UCCUGGAACACCAUGCAUAGUAUUUAGUUA	0.212 ± 0.051
UCCUGGAUCAGCUUGCUAUGUAUUUAGUAA	0.00634 ± 0.0034
UCCUGGAUGUCGAACGUUUGUAUUUAGUAA	< 0.0001
UCCUCCUACAGCUUGCAUUCAAUUUAGUUA	0.0119 ± 0.0059
UCCUGCUACAGCUAGCAUAGUAUUUUCAAA	0.0744 ± 0.023
UCCUGGAUGAGUUGCAUAGUAUUUAGUUA	0.0281 ± 0.0058
UCCUCCUACAGCUUGCAUAGUUAAUACAAA	0.0247 ± 0.011
UCCUGGAUGUGCUUGGAAAGUAUUUAGUUA	0.0153 ± 0.0039
UCCUCCUACAGCUUGCAUAGUAUAAUGAAA	0.271 ± 0.045
UCCUGGAUGUCGGUGCAUAGUAUUUAGUUA	0.00478 ± 0.0028
UCGACCUACAGCUUGCAUAGAAUUUUCAAA	0.369 ± 0.059
UCCUGCUACAGCUUCCAUAGUAUUUAGUAA	0.0488 ± 0.017
UCCUGCUACAGCUUGCAUAGUAAUUACAAA	0.193 ± 0.046
